# Laboratory results as given in the supplement of paper PMC11417369.
# The other results are listed elsewhere or left out.
# System: PF3D7_0420300 AP2 domain 1 (GST-tagged)
# Assay: gcPBM binding intensity (ln(normalized median fluorescence intensity)); higher = stronger DNA binding
# Outline: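 GST-fused DNA-binding domains of P. falciparum, expressed in E. coli, were applied at about 25 μg on average for 1 h to an Agilent 4 × 180k array of primer-extended double-stranded 36-bp intergenic genomic probes and negative controls. Binding intensity is the highest Masliner-normalised natural-log median intensity across replicate spots of either probe orientation, measured with Alexa488 anti-GST antibody and a 488 nm scan.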
row,Sequence,gcPBM binding intensity (ln)
1,ATTTGTTTACCTAAAAGTACAAATTTTTTATGTATA [XGTACX_site7689],9.11
2,TGTTTTGTTTTTTGGGGTACATGTTTTGTATTATAT [XGTACX_site7997],9.89
3,TATCCCTTAGAATACACACCCATATGAGTGTGAACT [CACACA_site7398],9.3
4,AAATGAAAGAATTAAAGTACATTTATATAATTTTAA [XGTACX_site3540],9.1
5,AAGAGAAAAACATACACACACAACAAAATATGTATA [CACACA_site2719],10
6,TAATAATAATTATATACACACATGTATATTATATTT [CACACA_site1501],9.38
7,ATTTAAATATATTATTGTACATATACCTAATAAGAA [XGTACX_site6655],9.19
8,ACTCCTATATAAATGAACCATATTCATAATATATAT [CACACA_negctrl_site1636],9.25
9,AATAATACAAAAGTTCAACAAAAAAAAAAAAAAAAT [CACACA_negctrl_site952],9.51
10,CTTTATAATATTTGTTGTACACAAATATAACATATT [XGTACX_site709],9.31
11,AATATATTTATAAGCACACACTAATAAACACAGACA [CACACA_site4377],9.87
12,AAATATATATATATATATATATATGTGTGTGTATAT [GTGCAC_negctrl_site1],9.54
13,GTACATAATTATTATGCACACATATTTTTATGTATT [CACACA_site8132],9.49
14,TGTATAATATATATATGTACTTATGTATAATATTAT [XGTACX_site4328],9.26
15,AAGATATCTAAGGAAATTAAACTACCAAAATATATA [TGCATGCA_negctrl_site338],9.27
16,TGCATAAAAGTAAAAACATGCATGCCGTGGTATCTT [TGCATGCA_site664],9.22
17,TTTTTATGGATATTTATATTATATTATGATTAAAAA [TGCATGCA_negctrl_site204],8.85
18,GACATATAAATATACACACATACGTAAGTATATTAA [CACACA_site1790],9.38
19,ATTGAATATGGATATGTGCACATATGTATATAAGTA,9.43
20,ATATATATACTGTGTACACACATATGTATTTATATA [CACACA_site4600],9.6
21,AAAACATTGTTGAACTGTTTTATTTATAAATATAAG [XGTACX_negctrl_site393],8.92
22,TCGTGTTAAACTTTTACACACAAACTTGCAATAATT [CACACA_site7745],9.59

row,Sequence,gcPBM binding intensity (ln)
1,TAATAACTACAAAAAAAAAAGAAAAATAGAAAAAGG [CACACA_negctrl_site1102],9.55
2,TTTGTTTAAATTAAATGTACATAAAGAATAATATAT [XGTACX_site5093],9.05
3,TGCTTTATTATTTATTGTACATGTAAAATGAGAGAG [XGTACX_site2288],8.99
4,AGAAGGTAAATAATTTACCCATATATATAAATATAT [GTGCAC_negctrl_site631],9.09
5,AATTATATGAAATAAACACACATATGTAATATTACA [CACACA_site1928],9.45
6,TTATTATTTCTTAGTAGTACTATATAATTTTTTTTT [XGTACX_site1847],9.26
7,ATAGTATCTGGTAGCTGTACGAGTCGTAGAGAGTAG [XGTACX_site2546],9.41
8,ATATATCTGTATGGCACACACGGATAAATATATATA [CACACA_site4668],9.52
9,TGTATTTAGAAACATACACACATATTAAGTTTACAT [CACACA_site5689],9.49
10,GGAAAATTATCAATAGCATGCAAAATGTGAATATTA [TGCATGCA_site901],9.3
11,TTTCCTCATTTTATCATACACACTTATTTATATGTG [CACACA_site900],9.49
12,GCCAAAATATAATTTACACACTTATTAAATAATTAT [CACACA_site236],9.36
13,AGAATAATACAAAAATGTACATTAATAAAAAGATAG [XGTACX_site780],9.65
14,TAAATAATATCCCTTTGTACGTATTTTTTTTTATTA [XGTACX_site7303],9.46
15,CGTTATATATGTATTACATGCAATATATGTACGTAA [TGCATGCA_site274],9.16
16,GAAATAAGTTAAAATAGTACGTAGTGTTCCTTAAGT [XGTACX_site6557],9.38
17,TTAGGAAAACAAAAATGTACGCATATATATTATTGA [XGTACX_site8288],9.27
18,TTAAAAATAATATATTGTACACATACTTATTTTAAT [XGTACX_site1348],9.13
19,TTTTTCTTTTGATGTTGTACATATATATCATATAAT [XGTACX_site1189],9.22
20,GTGCATATACAAATATGTACTTAAACGTTTTTTTTT [XGTACX_site7362],9.2
21,AAGACTTCTCCATATACACACACCAACAAATATAAA [CACACA_site2779],9.57
22,GTTTATTCATCATACGGTACACATAAATAATATATA [XGTACX_site6931],9.37
